In the supplement of paper PMC8813932:
Where a name gives a salt, the structure may show the parent alone. ± gives the standard deviation of the averaged measurements. The list shows a part of the results. Repeats are few or missing, and single values can be far off.

Columns and labels:
Assay in all cases: log2 surviving fraction relative to plate median (drug vs vehicle, or drug+dl922-947 vs dl922-947 alone); ovarian cancer lines: OVCAR4 is platinum-sensitive while Ov4Cis resists cisplatin and Ov4Carbo carboplatin; higher = more cell survival
Conditions in all cases: compound concentration: 10 uM, 192 h
OVCAR4 = system: OVCAR4
Ov4Carbo = system: Ov4Carbo
Ov4Cis = system: Ov4Cis
[1] = dl922-947 oncolytic adenovirus co-treatment: MOI 10
[2] = dl922-947 oncolytic adenovirus co-treatment: none

Structure (SMILES) | log2 surviving fraction (OVCAR4; [1]) | log2 surviving fraction (OVCAR4; [2]) | log2 surviving fraction (Ov4Carbo; [1]) | log2 surviving fraction (Ov4Carbo; [2]) | log2 surviving fraction (Ov4Cis; [1]) | log2 surviving fraction (Ov4Cis; [2])
O=C(OCC(O)CO)c1ccccc1Nc1ccnc2cc(Cl)ccc12 (stereo unspecified) [Glafenine HCl] | -0.764 ± 0.26 | -1.07 ± 0.19 | -1.72 | -1.76 | -1.45 | -1.65
C[C@@H]1C(=O)O[C@H]2C[C@@]34[C@H]5C[C@@H](C(C)(C)C)[C@]36[C@@H](OC(=O)[C@@H]6O)O[C@@]4(C(=O)O5)[C@]21O [Ginkgolide A] | -0.338 ± 1.4 | -0.683 ± 0.13 | 0.769 | 0.0911 | -0.729 | -0.378
CC(=O)NS(=O)(=O)c1ccc(NC(=O)c2ccccc2C(=O)O)cc1 [Phthalylsulfacetamide] | -0.208 ± 0.14 | -0.209 ± 0.67 | 0.656 | -0.447 | 0.698 | -2.18
CN1C(C(=O)Nc2ccccn2)=C(O)c2sccc2S1(=O)=O [Tenoxicam (Mobiflex)] | -0.0883 ± 0.46 | -0.0456 ± 0.1 | 1.13 | 0.201 | -0.676 | -0.281
NNC(=O)c1ccncc1 [Isoniazid (Tubizid)] | 0.415 ± 0.33 | 0.421 ± 0.057 | -0.363 | 0.291 | -0.0935 | 0.59
CCCN[C@H]1CCc2nc(N)sc2C1 [Pramipexole dihydrochloride monohydrate] | -0.946 ± 0.6 | -0.132 ± 1.3 | -0.376 | -0.588 | -0.486 | -0.286
Cc1cc(NS(=O)(=O)c2ccc(N)cc2)no1 [Sulfamethoxazole] | -0.355 ± 0.85 | 0.657 ± 0.29 | -0.334 | 0.992 | 0.894 | 1.92
CC(=O)[C@H]1CC[C@H]2[C@@H]3CCC4=CC(=O)CC[C@]4(C)[C@H]3CC[C@]12C [Progesterone (Prometrium)] | -0.345 ± 0.93 | -1.34 ± 0.99 | 0.589 | -0.0771 | -0.174 | -0.22
CC1(C)S[C@@H]2[C@H](NC(=O)[C@H](NC(=O)N3CCNC3=O)c3ccccc3)C(=O)N2[C@H]1C(=O)O [Azlocillin sodium salt] | -0.425 ± 0.2 | 0.285 ± 0.12 | 0.0813 | 0.424 | -0.00756 | 0.347
CC1(C)S[C@@H]2[C@H](NC(=O)[C@H](N)c3ccc(O)cc3)C(=O)N2[C@H]1C(=O)O [Amoxicillin sodium (Amox)] | -0.302 ± 0.44 | -0.514 ± 0.15 | -0.646 | 0.576 | -1.45 | -0.117
CC(C)C[C@H]1C(=O)N2CCC[C@H]2[C@]2(O)O[C@](NC(=O)[C@@H]3C=C4c5cccc6[nH]c(Br)c(c56)C[C@H]4N(C)C3)(C(C)C)C(=O)N12 [Bromocriptine Mesylate] | -0.387 ± 1.2 | -1.4 ± 1.7 | -0.914 | -5.78 | 0.0116 | -2.64
CC[C@H]1OC(=O)[C@H](C)[C@@H](O[C@H]2C[C@@](C)(OC)[C@@H](O)[C@H](C)O2)[C@H](C)[C@@H](O[C@@H]2O[C@H](C)C[C@H](N(C)C)[C@H]2O)[C@](C)(O)C[C@@H](C)C(=O)[C@H](C)[C@@H](O)[C@]1(C)O [Erythromycin (E-Mycin)] | 0.0414 ± 1.1 | -0.0157 ± 0.68 | 0.16 | -1.8 | 0.273 | -0.0206
C[C@@H](O)[C@H]1C(=O)N2C(C(=O)OCOC(=O)C(C)(C)C)=C(SC3CN(C4=NCCS4)C3)[C@H](C)[C@H]12 [Tebipenem pivoxil (L-084)] | 0.142 ± 1.1 | -0.276 ± 0.31 | 0.714 | 0.169 | -0.375 | -0.57
NCCCC[C@H](N[C@@H](CCc1ccccc1)C(=O)O)C(=O)N1CCC[C@H]1C(=O)O [Lisinopril (Zestril)] | 0.911 ± 1.1 | 0.826 ± 0.19 | -0.483 | 0.769 | -0.387 | 1.07
O=C(O[C@H]1C[C@H]2CC[C@@H](C1)[N+]21CCCC1)C(O)(c1ccccc1)c1ccccc1 [Trospium chloride (Sanctura)] | -0.261 ± 0.41 | -0.246 ± 0.25 | 1.64 | -0.0323 | 0.184 | -0.518
O=C(O)c1ccccc1 [Benzoic acid] | 0.0815 ± 0.032 | -0.94 ± 0.53 | 0.615 | -0.195 | -1.3 | -0.382
CCN[C@H]1CN(CCCOC)S(=O)(=O)c2sc(S(N)(=O)=O)cc21 [Brinzolamide] | 0.316 ± 0.29 | 1.06 ± 1.2 | -0.253 | 0.327 | -0.234 | 0.228
CCCNC(C)C(=O)Nc1ccccc1C (stereo unspecified) [Prilocaine] | -0.273 ± 0.32 | -0.0713 ± 0.039 | 0.863 | 0.384 | 0.148 | -0.727
CN[C@H]1CC[C@@H](c2ccc(Cl)c(Cl)c2)c2ccccc21 [Sertraline HCl] | -7.2 ± 2.1 | -8.26 ± 2.2 | -8.17 | -9.76 | -8.75 | -13.8
CN1[C@@H]2CC(O)C[C@H]1[C@@H]1O[C@@H]12 (stereo partly specified) [Scopine] | 0.195 ± 0.74 | -0.379 ± 0.16 | 1.37 | 0.0227 | 0.283 | 0.121
Nc1[nH]cnc2ncnc1-2 [Adenine hydrochloride] | 0.697 ± 0.27 | 0.248 ± 0.86 | 1.46 | 0.0236 | 0.807 | 1.49
CCOC(=O)C(C)(C)Oc1ccc(Cl)cc1 [Clofibrate (Atromid-S)] | 1.08 ± 0.85 | 0.681 ± 0.3 | 0.149 | 0.398 | 0.301 | 0.808
Cc1nc(-c2ccc(OCC(C)C)c(C#N)c2)sc1C(=O)O [Febuxostat (Uloric)] | 0.362 ± 0.35 | 0.249 ± 0.2 | 0.888 | -0.453 | 0.344 | 0.057

Structure (SMILES) | log2 surviving fraction (OVCAR4; [1]) | log2 surviving fraction (OVCAR4; [2]) | log2 surviving fraction (Ov4Carbo; [1]) | log2 surviving fraction (Ov4Carbo; [2]) | log2 surviving fraction (Ov4Cis; [1]) | log2 surviving fraction (Ov4Cis; [2])
Cc1nnc(NS(=O)(=O)c2ccc(N)cc2)s1 [Sulfamethizole (Proklar)] | 0.533 ± 0.42 | 0.55 ± 0.056 | 0.998 | 0.808 | -0.313 | 0.366
Cc1cccc([C@H](C)c2c[nH]cn2)c1C [Dexmedetomidine] | 1.46 ± 0.33 | -0.0363 ± 0.16 | -0.412 | -3.65 | 0.605 | -0.134
CCCCCOC(=O)Nc1nc(=O)n([C@@H]2O[C@H](C)[C@@H](O)[C@H]2O)cc1F [Capecitabine (Xeloda)] | 0.867 ± 1.1 | 3.69 ± 4 | 1.41 | 1.84 | 1.3 | 1.36
CCCCCCCCOc1ccccc1C(=O)Nc1ccc(C(=O)OCC[N+](C)(CC)CC)cc1 [Otilonium Bromide] | -0.519 ± 0.28 | -0.0913 ± 0.15 | -2.07 | 1.59 | -0.581 | 0.0999
CN(C)[C@@H](CCOc1cccc2ccccc12)c1ccccc1 [Dapoxetine hydrochloride (Priligy)] | -0.827 ± 0.7 | -1.19 ± 0.33 | -1.27 | -1.5 | -2.25 | -1.61
CCOC(=O)c1ccc(N)cc1 [Benzocaine] | -0.767 ± 0.33 | -0.0487 ± 0.29 | 0.191 | -0.224 | 0.675 | -0.778
CN1CCN2c3ccccc3Cc3ccccc3C2C1 (stereo unspecified) [Mianserin hydrochloride] | -0.294 ± 0.88 | -0.765 ± 0.45 | -1.36 | -1.33 | -1.09 | -1.42
Cc1cccc(C)c1OCC(C)N (stereo unspecified) [Mexiletine HCl] | 0.769 ± 0.5 | 1.03 ± 0.38 | 0.0224 | -0.0501 | -0.226 | 0.404
CCn1cc(C(=O)O)c(=O)c2cc(F)c(N3CCNC(C)C3)c(F)c21 (stereo unspecified) [Lomefloxacin hydrochloride (Maxaquin)] | -1.22 ± 0.33 | -0.534 ± 0.68 | 0.347 | -0.0861 | -0.751 | -0.465
O=C(CCCN1CCN(c2ccccn2)CC1)c1ccc(F)cc1 [Azaperone] | -0.91 ± 0.57 | 0.173 ± 0.067 | -1.02 | 0.315 | 0.65 | -0.151
CCCCCCCCCCCCCCCCO [1-Hexadecanol] | -0.361 ± 1.1 | -0.232 ± 0.78 | 0.189 | -5.67 | -1.37 | -0.294
CCC1(C)CC(=O)NC(=O)C1 [Bemegride] | -0.16 ± 0.73 | 0.203 ± 1 | -0.0224 | -0.538 | -0.241 | -1.1
CC[C@@H]([C@H](C)O)n1ncn(-c2ccc(N3CCN(c4ccc(OC[C@@H]5CO[C@@](Cn6cncn6)(c6ccc(F)cc6F)C5)cc4)CC3)cc2)c1=O [Posaconazole] | 0.375 ± 1.3 | 3.6 ± 1.5 | -3.81 | -6.56 | 0.673 | 2.32
CCCNC(C)C(=O)Nc1c(C)csc1C(=O)OC (stereo unspecified) [Articaine HCl] | 0.354 ± 0.83 | -0.625 ± 0.93 | 0.266 | -0.727 | -0.0511 | 0.657
COc1ccc(/C=C/C(=O)Nc2ccccc2C(=O)O)cc1OC | 0.332 ± 0.9 | 0.159 ± 0.97 | -0.13 | -0.0279 | -0.124 | 0.978
CN1C2CCCC1CC(NC(=O)c1nn(C)c3ccccc13)C2 (stereo unspecified) [Granisetron HCl] | -0.118 ± 0.47 | 0.112 ± 0.19 | -0.176 | -0.289 | 0.0998 | -0.0419
CC[C@H]1OC(=O)[C@H](C)[C@@H](O[C@H]2C[C@@](C)(OC)[C@@H](O)[C@H](C)O2)[C@H](C)[C@@H](O[C@@H]2O[C@H](C)C[C@H](N(C)C)[C@H]2O)[C@](C)(O)C[C@@H](C)/C(=N\OCOCCOC)[C@H](C)[C@@H](O)[C@]1(C)O [Roxithromycin (Roxl-150)] | 0.0137 ± 0.078 | 0.0199 ± 0.68 | -1 | -0.376 | 0.321 | 0.0738
COC(=O)[C@H](c1ccccc1Cl)N1CCc2sccc2C1 [Clopidogrel (Plavix)] | 1.03 ± 0.96 | 0.0781 ± 0.12 | 1.2 | 0.299 | 0.149 | 0.555
CC1C=CC=CCCC=CC=CC=CC=CC(OC2OC(C)C(O)C(N)C2O)CC2OC(O)(CC(O)C(O)CCC(O)CC(O)CC(O)CC(=O)OC(C)C(C)C1O)CC(O)C2C(=O)O (stereo unspecified) [Nystatin (Mycostatin)] | -0.489 ± 0.96 | 0.562 ± 1.4 | 0.181 | -0.107 | -0.658 | 0.415
CCOC(=O)[C@H](CCc1ccccc1)N[C@@H](C)C(=O)N1[C@H](C(=O)O)C[C@@H]2CCC[C@@H]21 [Ramipril (Altace)] | 0.486 ± 0.1 | 0.605 ± 0.37 | 1.17 | 0.748 | 0.277 | 0.455
CC(C)(O)c1ccccc1CC[C@@H](SCC1(CC(=O)O)CC1)c1cccc(/C=C/c2ccc3ccc(Cl)cc3n2)c1 [Montelukast Sodium] | -0.59 ± 0.47 | 0.185 ± 0.068 | -1.18 | -0.0383 | 0.146 | -1.04
CC(=O)O[C@H]1C[C@@H]2CC[C@@H]3[C@H](CC[C@@]4(C)[C@H]3C[C@H]([N+]3(C)CCCCC3)[C@@H]4OC(C)=O)[C@@]2(C)C[C@@H]1[N+]1(C)CCCCC1 [Pancuronium (Pavulon)] | 0.204 ± 0.059 | -0.251 ± 0.038 | -0.0745 | -0.248 | 0.336 | -0.00891
N[C@@H](C(=O)N[C@@H]1C(=O)N2C(C(=O)O)=C(Cl)CS[C@H]12)c1ccccc1 [Cefaclor (Ceclor)] | 1.09 ± 0.66 | 0.144 ± 0.1 | 1.09 | 0.249 | 0.388 | 0.626
